For three substances, binding results are on record in article PMC8785984.

Protein sequences, listed by entry. Tags and fused reporters are not part of them.
UniProt Q13620: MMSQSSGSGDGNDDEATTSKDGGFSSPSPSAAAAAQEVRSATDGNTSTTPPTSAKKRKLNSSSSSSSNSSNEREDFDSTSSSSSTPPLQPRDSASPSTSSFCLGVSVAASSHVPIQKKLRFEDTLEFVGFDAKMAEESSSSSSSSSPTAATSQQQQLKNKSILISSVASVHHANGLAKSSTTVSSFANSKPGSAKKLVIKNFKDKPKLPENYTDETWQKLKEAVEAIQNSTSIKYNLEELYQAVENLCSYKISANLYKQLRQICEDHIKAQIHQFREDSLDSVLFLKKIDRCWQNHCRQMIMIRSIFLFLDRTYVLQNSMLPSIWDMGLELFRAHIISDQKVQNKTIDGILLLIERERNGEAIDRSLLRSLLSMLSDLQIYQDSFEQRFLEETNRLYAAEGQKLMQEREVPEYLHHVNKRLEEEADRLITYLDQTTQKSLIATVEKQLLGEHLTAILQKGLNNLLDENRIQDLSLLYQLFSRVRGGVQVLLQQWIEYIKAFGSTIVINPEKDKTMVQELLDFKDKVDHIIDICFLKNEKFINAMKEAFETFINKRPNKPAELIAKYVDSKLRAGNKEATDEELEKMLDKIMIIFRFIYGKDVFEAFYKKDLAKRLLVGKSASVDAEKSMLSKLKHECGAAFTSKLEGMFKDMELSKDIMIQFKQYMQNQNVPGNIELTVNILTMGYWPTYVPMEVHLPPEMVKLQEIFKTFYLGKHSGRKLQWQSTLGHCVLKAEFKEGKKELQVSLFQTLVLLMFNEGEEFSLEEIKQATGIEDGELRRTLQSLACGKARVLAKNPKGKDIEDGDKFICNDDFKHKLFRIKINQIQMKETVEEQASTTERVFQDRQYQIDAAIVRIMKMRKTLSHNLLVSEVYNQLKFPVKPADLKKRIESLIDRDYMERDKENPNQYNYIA
UniProt Q93034: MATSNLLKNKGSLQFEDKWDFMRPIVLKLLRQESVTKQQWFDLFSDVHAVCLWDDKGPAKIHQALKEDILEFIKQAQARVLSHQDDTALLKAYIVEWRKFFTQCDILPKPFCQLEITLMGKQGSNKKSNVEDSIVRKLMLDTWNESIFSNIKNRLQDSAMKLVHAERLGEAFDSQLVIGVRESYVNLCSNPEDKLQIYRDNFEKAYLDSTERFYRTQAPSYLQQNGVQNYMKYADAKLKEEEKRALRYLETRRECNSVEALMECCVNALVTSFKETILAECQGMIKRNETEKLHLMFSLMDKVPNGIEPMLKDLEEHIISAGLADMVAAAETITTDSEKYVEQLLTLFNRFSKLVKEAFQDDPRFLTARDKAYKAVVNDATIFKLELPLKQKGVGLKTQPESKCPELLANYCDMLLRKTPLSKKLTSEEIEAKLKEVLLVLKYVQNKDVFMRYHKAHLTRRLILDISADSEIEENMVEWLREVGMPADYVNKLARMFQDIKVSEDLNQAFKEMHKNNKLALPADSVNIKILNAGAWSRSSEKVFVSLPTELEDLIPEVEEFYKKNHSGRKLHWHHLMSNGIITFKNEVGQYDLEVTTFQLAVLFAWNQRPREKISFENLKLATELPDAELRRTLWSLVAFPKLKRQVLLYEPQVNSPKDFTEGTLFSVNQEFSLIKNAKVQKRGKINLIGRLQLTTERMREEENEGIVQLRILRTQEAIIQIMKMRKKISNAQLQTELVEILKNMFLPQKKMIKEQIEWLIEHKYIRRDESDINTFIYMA
UniProt Q13616: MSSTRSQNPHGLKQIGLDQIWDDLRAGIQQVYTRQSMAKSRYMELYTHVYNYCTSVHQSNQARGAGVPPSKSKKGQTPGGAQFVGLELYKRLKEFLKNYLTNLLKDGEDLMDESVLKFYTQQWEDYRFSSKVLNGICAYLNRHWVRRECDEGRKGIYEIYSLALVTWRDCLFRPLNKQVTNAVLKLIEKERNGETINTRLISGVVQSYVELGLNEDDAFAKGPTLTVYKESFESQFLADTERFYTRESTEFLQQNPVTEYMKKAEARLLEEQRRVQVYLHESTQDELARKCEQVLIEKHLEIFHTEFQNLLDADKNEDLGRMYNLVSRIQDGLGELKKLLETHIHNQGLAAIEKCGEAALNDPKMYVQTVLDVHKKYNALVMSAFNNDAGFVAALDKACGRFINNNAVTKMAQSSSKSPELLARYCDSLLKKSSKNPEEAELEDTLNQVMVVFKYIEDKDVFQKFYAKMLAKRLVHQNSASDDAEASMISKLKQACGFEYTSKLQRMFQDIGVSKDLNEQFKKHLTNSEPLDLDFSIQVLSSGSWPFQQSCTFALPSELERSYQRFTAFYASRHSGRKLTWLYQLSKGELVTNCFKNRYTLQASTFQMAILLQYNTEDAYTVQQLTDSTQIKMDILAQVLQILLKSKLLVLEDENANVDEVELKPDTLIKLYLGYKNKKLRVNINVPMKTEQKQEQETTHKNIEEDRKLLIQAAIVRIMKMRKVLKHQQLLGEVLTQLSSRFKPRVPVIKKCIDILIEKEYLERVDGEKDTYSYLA
UniProt Q96DH6: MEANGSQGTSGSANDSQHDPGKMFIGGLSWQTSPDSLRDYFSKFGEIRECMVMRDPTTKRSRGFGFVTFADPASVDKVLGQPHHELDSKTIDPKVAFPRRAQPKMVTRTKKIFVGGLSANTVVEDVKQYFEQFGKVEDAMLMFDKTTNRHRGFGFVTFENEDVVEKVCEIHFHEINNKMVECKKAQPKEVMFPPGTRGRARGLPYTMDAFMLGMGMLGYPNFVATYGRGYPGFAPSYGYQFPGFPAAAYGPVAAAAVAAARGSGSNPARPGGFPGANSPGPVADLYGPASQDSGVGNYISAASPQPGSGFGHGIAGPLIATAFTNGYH
UniProt Q969H0: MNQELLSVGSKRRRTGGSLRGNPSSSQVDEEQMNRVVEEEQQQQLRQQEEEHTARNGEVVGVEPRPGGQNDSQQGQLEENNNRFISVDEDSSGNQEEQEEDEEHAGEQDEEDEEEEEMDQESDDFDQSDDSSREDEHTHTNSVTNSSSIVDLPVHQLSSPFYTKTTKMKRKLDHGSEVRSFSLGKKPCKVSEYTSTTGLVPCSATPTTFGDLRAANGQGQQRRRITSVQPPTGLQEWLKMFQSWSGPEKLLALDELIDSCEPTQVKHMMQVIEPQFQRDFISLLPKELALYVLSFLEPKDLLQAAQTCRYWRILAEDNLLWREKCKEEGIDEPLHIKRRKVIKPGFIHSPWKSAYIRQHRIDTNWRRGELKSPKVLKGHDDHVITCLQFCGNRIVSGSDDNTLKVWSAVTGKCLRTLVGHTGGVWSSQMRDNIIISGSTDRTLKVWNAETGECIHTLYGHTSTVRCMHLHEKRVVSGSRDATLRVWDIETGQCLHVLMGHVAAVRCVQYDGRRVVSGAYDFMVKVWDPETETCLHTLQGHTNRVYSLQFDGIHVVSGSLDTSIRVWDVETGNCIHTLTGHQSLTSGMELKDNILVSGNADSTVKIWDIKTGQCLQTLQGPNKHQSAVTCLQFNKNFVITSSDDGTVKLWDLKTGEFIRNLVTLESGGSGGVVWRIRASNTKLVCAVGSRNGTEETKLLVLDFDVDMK

One assay addresses Flag-Cullin 4B (UniProt Q13620). The experiment in a line: co-IP; 293T cells co-transfected with Flag-Cullin family proteins (1, 3, 4B, 5) and Myc-MSI2; IP with anti-Flag or anti-Myc antibody, western blot; MG-132 (20 μM) for 6 h before harvesting; RIPA lysate. Background: A western blot detects proteins with antibodies after separation by electrophoresis.
In the next assay the target is Flag-Cullin 5 (UniProt Q93034). The assay is described as above.
A further assay deals with Flag-Cullin1 (UniProt Q13616). The description is as above.
The target of assay [1] is Flag-MSI2 (human) (UniProt Q96DH6). Description: co-IP; SGC7901 cells transfected with Flag-MSI2; IP with anti-Flag antibody, western blot for endogenous partners; MG-132 (20 μM) for 6 h before harvesting; RIPA lysate.
Assay [2] has the same target. Description: co-IP; 293T cells transfected with Flag-MSI2 constructs and HA-β-Trcp or HA-FBXW7; IP with anti-Flag antibody, western blot; MG-132 (20 μM) for 6 h before harvesting; RIPA lysate.

No constants are given. Whether binding was seen depends on the method and setting. Binding seen in cells or lysates may run through a third protein. Some entries that bind do so weakly or less than the wild type.

For the substance Myc-MSI2 (from UniProt Q96DH6 1-328), the binding entry was “no binding” with Flag-Cullin 4B, “no binding” in the assay with Flag-Cullin 5 and “binds” in the assay with Flag-Cullin1. For the substance “FBXW7 (endogenous, SGC7901) (from UniProt Q969H0 1-707)”, the binding result with Flag-MSI2 (human) [1] is on record as “no binding”. In the case of HA-FBXW7 (from UniProt Q969H0 1-707), in the assay with Flag-MSI2 (human) [2], the binding result is listed as “no binding”.
